# From the supplement of paper PMC10037445
# Where “and” joins values, the source holds several entries; their conditions need not be identical. Equal entries are not always repeated. The full ranking holds about 2,900 compounds; the median of “IRF Lucia reporter activity, fold change vs agonist alone” is about 0.9, and the highest 2% start at about 2.8. The list shows a part of the results.
# Columns and labels:
# [1] = test system: RAW-Dual; experiment: IRF Lucia reporter activity, fold change vs agonist alone; cytotoxicity flag (confluency mask): not cytotoxic; higher = enhanced IRF activity
# In short: (§1)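 Library stock was pin-tooled at 50 nL into 384-well plates of RAW-Dual macrophages (50,000 cells/well, DMEM), followed 1 h later by a PRR agonist, and the cells were kept at 37 °C, 5% CO2. Supernatant collected after 20 hours was read for IRF by QuantiLuc luminescence and for NF-κB by QuantiBlue absorbance at 620 nm. Reporter activity is fold change over agonist-alone wells, and a well counted as cytotoxic when its IncuCyte confluency was below 70% of agonist controls in both mask sets.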
# [2] = test system: RAW-Dual; experiment: IRF Lucia reporter activity, fold change vs agonist alone; higher = enhanced IRF activity; conditions: cytotoxicity flag (confluency mask): not cytotoxic, agonist: MPLA (TLR4) […]
# In short: as §1
# [3] = test system: RAW-Dual; experiment: IRF Lucia reporter activity, fold change vs agonist alone; cytotoxicity flag (confluency mask): cytotoxic (confluency <70% of control); higher = enhanced IRF activity
# In short: as §1
# [4] = agonist: 3'3'-cGAMP (STING) 10 ug/mL
# [5] = library stock concentration (final ~1000-fold dilution): 10 mM
smiles,measurement,setting,value
N=C1NC(=O)/C(=C/c2ccc(O)cc2)S1 (library stock concentration (final ~1000-fold dilution): 10 mM),IRF Lucia reporter activity,[1]; [4],0.687
same,IRF Lucia reporter activity,[1]; agonist: LPS (TLR4) 0.1 ug/mL,0.843
CN(C)C(=O)Nc1cccc(-c2ccc(N(C)C)cc2)c1,IRF Lucia reporter activity,[2]; [5],1.08
CN(C)C(=O)Nc1cccc(-c2ccc(N(C)C)cc2)c1 (library stock concentration (final ~1000-fold dilution): 10 mM),IRF Lucia reporter activity,[1]; [4],0.907
same,IRF Lucia reporter activity,[1]; agonist: LPS (TLR4) 0.1 ug/mL,0.77
O=C(c1ccc(Oc2ccccc2)cc1Cl)c1c[nH]c2ncnc(NC3CCC(CO)OC3)c12 (stereo unspecified) (library stock concentration (final ~1000-fold dilution): 10 mM),IRF Lucia reporter activity,[3]; [4],0.23
same,IRF Lucia reporter activity,[3]; agonist: LPS (TLR4) 0.1 ug/mL,0.593
C=CC(=O)N1CCC(CNc2ncnc(N)c2-c2ccc(Oc3ccccc3)cc2)CC1 (library stock concentration (final ~1000-fold dilution): 10 mM),IRF Lucia reporter activity,[1]; [4],0.787
same,IRF Lucia reporter activity,[1]; agonist: LPS (TLR4) 0.1 ug/mL,0.55
C=CC(C)(/C=C/c1ccc(O)cc1)CCC=C(C)C (stereo unspecified) (library stock concentration (final ~1000-fold dilution): 10 mM),IRF Lucia reporter activity,[1]; [4],0.407
same,IRF Lucia reporter activity,[1]; agonist: LPS (TLR4) 0.1 ug/mL,1.13
C=CC(C)(/C=C/c1ccc(O)cc1)CCC=C(C)C (stereo unspecified),IRF Lucia reporter activity,[2]; [5],1.13
N#Cc1ccc(C(c2ccc(C#N)cc2)n2cncn2)cc1 (library stock concentration (final ~1000-fold dilution): 10 mM),IRF Lucia reporter activity,[1]; [4],0.973
same,IRF Lucia reporter activity,[1]; agonist: LPS (TLR4) 0.1 ug/mL,0.931
N#Cc1ccc(C(c2ccc(C#N)cc2)n2cncn2)cc1,IRF Lucia reporter activity,[2]; [5],1.02
CCCC1CC(C(=O)NC(C(C)Cl)C2OC(SC)C(O)C(O)C2O)N(C)C1 (stereo unspecified) (library stock concentration (final ~1000-fold dilution): 10 mM),IRF Lucia reporter activity,[1]; [4],1.07
same,IRF Lucia reporter activity,[1]; agonist: LPS (TLR4) 0.1 ug/mL,0.931
CCCC1CC(C(=O)NC(C(C)Cl)C2OC(SC)C(O)C(O)C2O)N(C)C1 (stereo unspecified),IRF Lucia reporter activity,[2]; [5],1.11
NC(=O)CCC(N)C(=O)O (library stock concentration (final ~1000-fold dilution): L-Glutamine),IRF Lucia reporter activity,[1]; [4],1.51
same,IRF Lucia reporter activity,[1]; agonist: LPS (TLR4) 0.1 ug/mL,0.923
NC(=O)CCC(N)C(=O)O (stereo unspecified),IRF Lucia reporter activity,[2]; library stock concentration (final ~1000-fold dilution): L-Glutamine,1.25
C[N+]1(C)CCC(OC(=O)C(O)(c2ccccc2)C2CCCC2)C1 (stereo unspecified) (library stock concentration (final ~1000-fold dilution): 10 mM),IRF Lucia reporter activity,[1]; [4],1.02
same,IRF Lucia reporter activity,[1]; agonist: LPS (TLR4) 0.1 ug/mL,1.18
C[N+]1(C)CCC(OC(=O)C(O)(c2ccccc2)C2CCCC2)C1 (stereo unspecified),IRF Lucia reporter activity,[2]; [5],1.09
COc1c2occc2cc2ccc(=O)oc12 (library stock concentration (final ~1000-fold dilution): 10 mM),IRF Lucia reporter activity,[1]; [4],0.954
same,IRF Lucia reporter activity,[1]; agonist: LPS (TLR4) 0.1 ug/mL,0.789
COc1c2occc2cc2ccc(=O)oc12,IRF Lucia reporter activity,[2]; [5],0.887
CC(C)CC(N)=O (library stock concentration (final ~1000-fold dilution): 10 mM),IRF Lucia reporter activity,[1]; [4],0.965
same,IRF Lucia reporter activity,[1]; agonist: LPS (TLR4) 0.1 ug/mL,0.766
CC(C)CC(N)=O,IRF Lucia reporter activity,[2]; [5],0.951
Cc1nccn1CC1CCc2c(c3ccccc3n2C)C1=O.Cl (stereo unspecified) (library stock concentration (final ~1000-fold dilution): 10 mM),IRF Lucia reporter activity,[1]; [4],0.921
same,IRF Lucia reporter activity,[1]; agonist: LPS (TLR4) 0.1 ug/mL,0.876
Cc1nccn1CC1CCc2c(c3ccccc3n2C)C1=O.Cl (stereo unspecified),IRF Lucia reporter activity,[2]; [5],0.965
C=C1C(=O)OC2/C=C(\C)CC/C=C(\C)CCC12 (stereo unspecified) (library stock concentration (final ~1000-fold dilution): 10 mM),IRF Lucia reporter activity,[1]; [4],0.0115
same,IRF Lucia reporter activity,[1]; agonist: LPS (TLR4) 0.1 ug/mL,0.0201
C=C1C(=O)OC2/C=C(\C)CC/C=C(\C)CCC12 (stereo unspecified),IRF Lucia reporter activity,[2]; [5],0.0253
CC(=O)OC1CC2(C)C(CC(O)C3C4(C)CCC(O)C(C)C4CCC32C)/C1=C(\CCC=C(C)C)C(=O)O (stereo unspecified),IRF Lucia reporter activity,[2]; [5],1.01
CC(=O)OC1CC2(C)C(CC(O)C3C4(C)CCC(O)C(C)C4CCC32C)/C1=C(\CCC=C(C)C)C(=O)O (stereo unspecified) (library stock concentration (final ~1000-fold dilution): 10 mM),IRF Lucia reporter activity,[1]; [4],0.902
same,IRF Lucia reporter activity,[1]; agonist: LPS (TLR4) 0.1 ug/mL,1.31
Cc1nnc(C(=O)NC(C)(C)c2nc(C(=O)NCc3ccc(F)cc3)c(O)c(=O)n2C)o1 (library stock concentration (final ~1000-fold dilution): 10 mM),IRF Lucia reporter activity,[1]; [4],1.01 and 1.06
same,IRF Lucia reporter activity,[1]; agonist: LPS (TLR4) 0.1 ug/mL,1.34 and 0.978
COC(=O)c1ccc2c(c1)nc(NC(=O)c1ccccc1)n2CCCc1ccccc1 (library stock concentration (final ~1000-fold dilution): 10 mM),IRF Lucia reporter activity,[1]; [4],0.992
same,IRF Lucia reporter activity,[1]; agonist: LPS (TLR4) 0.1 ug/mL,1.27
CN1CCN(Cc2ccc(Nc3ncc(Cl)c(Nc4ccccc4S(=O)(=O)N(C)C)n3)cc2)CC1 (library stock concentration (final ~1000-fold dilution): 2 mM),IRF Lucia reporter activity,[3]; [4],0.0995
same,IRF Lucia reporter activity,[3]; agonist: LPS (TLR4) 0.1 ug/mL,0.0212
c1ccc(NCc2ccc(CNc3ccccn3)cc2)nc1,IRF Lucia reporter activity,[2]; [5],1
